We go through one molecule from the supplement of paper PMC8728848.

What all share (assay): glycan array binding signal (z-score within array); higher = stronger binding
Conditions in all cases: glycan notation: IUPAC condensed, linker removed

The target of assay [1] is Gal(b1-4)GlcNAc(b1-2)Man(a1-3)[Gal(b1-4)GlcNAc(b1-2)Man(a1-6)]Man(b1-4)GlcNAc(b1-4)GlcNAc. In outline:
(§1)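 Negative Z-scores can be read as non-binding. The Z-score is calculated within each array and then averaged across arrays of one protein sequence at different concentrations or buffers and across linkers. Arrays, 3228 in all, were curated from the Consortium for Functional Glycomics database and kept only where the protein sequence was available.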

In assay [2] the target is Gal(b1-4)GlcNAc(b1-2)Man(a1-3)[Gal(b1-4)GlcNAc(b1-2)Man(a1-6)]Man(b1-4)GlcNAc(b1-4)[Fuc(a1-6)]GlcNAc. The procedure, abridged:
as §1

For assay [3], the target named is Gal(b1-4)GlcNAc(b1-2)Man(a1-3)[Gal(b1-4)GlcNAc(b1-2)Man(a1-6)][Gal(b1-4)GlcNAc(b1-4)]Man(b1-4)GlcNAc(b1-4)[Fuc(a1-6)]GlcNAc. The procedure, abridged: as §1
Assay [4] has as its target Gal(b1-4)GlcNAc(b1-2)Man(a1-3)[Gal(b1-4)GlcNAc(b1-2)Man(a1-6)][GlcNAc(b1-4)]Man(b1-4)GlcNAc(b1-4)[Fuc(a1-6)]GlcNAc. In outline: as §1
Assay [5] addresses Gal(b1-4)GlcNAc(b1-2)Man(a1-3)[GlcNAc(b1-2)Man(a1-6)]Man(b1-4)GlcNAc(b1-4)GlcNAc. The procedure, abridged:
as §1

Assay [6] addresses Gal(b1-4)GlcNAc(b1-2)Man(a1-3)[GlcNAc(b1-4)][Gal(b1-4)GlcNAc(b1-2)Man(a1-6)]Man(b1-4)GlcNAc(b1-4)GlcNAc. The procedure, abridged:
as §1

Assay [7] has as its target Gal(b1-4)GlcNAc(b1-2)Man(a1-3)[Man(a1-6)]Man(b1-4)GlcNAc(b1-4)GlcNAc. In outline: as §1
Assay [8] concerns the target Gal(b1-4)GlcNAc(b1-2)Man(a1-6)Man(b1-4)GlcNAc(b1-4)GlcNAc. In outline: as §1
Assay [9] concerns the target Gal(b1-4)GlcNAc(b1-2)Man(a1-6)[GlcNAc(b1-2)Man(a1-3)]Man(b1-4)GlcNAc(b1-4)GlcNAc. In outline: as §1
Assay [10] addresses Gal(b1-4)GlcNAc(b1-2)Man(a1-6)[Man(a1-3)]Man(b1-4)GlcNAc(b1-4)GlcNAc. In outline: as §1
In assay [11] the target is Gal(b1-4)GlcNAc(b1-2)[Gal(b1-4)GlcNAc(b1-4)]Man(a1-3)[Gal(b1-4)GlcNAc(b1-2)Man(a1-6)]Man(b1-4)GlcNAc(b1-4)GlcNAc. In outline:
as §1

Assay [12] deals with Gal(b1-4)GlcNAc(b1-2)[Gal(b1-4)GlcNAc(b1-4)]Man(a1-3)[Gal(b1-4)GlcNAc(b1-2)[Gal(b1-4)GlcNAc(b1-6)]Man(a1-6)]Man(b1-4)GlcNAc(b1-4)GlcNAc. In outline:
as §1

Assay [13] concerns the target Gal(b1-4)GlcNAc(b1-2)[Gal(b1-4)GlcNAc(b1-4)]Man(a1-3)[GlcNAc(b1-4)][Gal(b1-4)GlcNAc(b1-2)Man(a1-6)]Man(b1-4)GlcNAc(b1-4)GlcNAc. The procedure, abridged: as §1
Assay [14] deals with Gal(b1-4)GlcNAc(b1-2)[Gal(b1-4)GlcNAc(b1-4)]Man(a1-3)[GlcNAc(b1-4)][Gal(b1-4)GlcNAc(b1-2)[Gal(b1-4)GlcNAc(b1-6)]Man(a1-6)]Man(b1-4)GlcNAc(b1-4)GlcNAc. The procedure, abridged: as §1
For assay [15], the target named is Gal(b1-4)GlcNAc(b1-2)[Gal(b1-4)GlcNAc(b1-6)]Man(a1-6)[Gal(b1-4)GlcNAc(b1-2)Man(a1-3)]Man(b1-4)GlcNAc(b1-4)GlcNAc. In outline: as §1
The target of assay [16] is Gal(b1-4)GlcNAc(b1-2)[Gal(b1-4)GlcNAc(b1-6)]Man(a1-6)[Gal(b1-4)GlcNAc(b1-2)Man(a1-3)]Man(b1-4)GlcNAc(b1-4)[Fuc(a1-6)]GlcNAc. In outline: as §1
Assay [17] addresses Gal(b1-4)GlcNAc(b1-2)[Gal(b1-4)GlcNAc(b1-6)]Man(a1-6)[GlcNAc(b1-4)][Gal(b1-4)GlcNAc(b1-2)Man(a1-3)]Man(b1-4)GlcNAc(b1-4)GlcNAc. The procedure, abridged:
as §1

In assay [18] the target is Gal(b1-4)GlcNAc(b1-2)[Gal(b1-4)GlcNAc(b1-6)]Man(a1-6)[GlcNAc(b1-4)][Gal(b1-4)GlcNAc(b1-2)[Gal(b1-4)GlcNAc(b1-4)]Man(a1-3)]Man(b1-4)GlcNAc(b1-4)[Fuc(a1-6)]GlcNAc. In outline:
as §1

Assay [19] deals with Gal(b1-4)GlcNAc(b1-3)Gal(b1-3)GalNAc. In outline: as §1

This is one part of the list.

B1: DrGal9 (Danio rerio) (protein)
chain: MAFYQQPPYYNPRIPFSGPIQGGLQDGKSIIISGRVLPGANRFHVNLQCGSHSEANVALHFNPRYEDTDYVVNNSYLNRTWGSEERKYESPFAQGQTFTLQILVAQDKYKISTNGRHFMDYKHRIPFTQVDTVAVEGMVEVNSVAFQNPAGFIPPQAGYAPQYAVPPGCGFPAFPSAPNYTIPHKTVMNGGLHPGKNIVINGVVNPNAKSIIFNLCYRSGIAFHYNPRFDENVVVRNTNQMEKWGAEERFGGLPFHKGQPFQVTISCNPQHYNVFVNGKQEHTYKHRYTKLNDIDILEICGDLQLTSVQA
For B1, the “glycan array binding signal (z-score)” value was 0.072 in assay [1]; 0.166 in assay [2]; 0.302 in [3]; 0.083 in assay [4]; -0.148 in assay [5]; -0.072 in assay [6]. The “glycan array binding signal (z-score)” value in assay [7] was 0.144; in assay [8], -0.094; in assay [9], -0.234; in assay [10], -0.023; in [11] it was 0.969; in assay [12], 0.365. Also, the “glycan array binding signal (z-score)” value in assay [13] turned out to be 0.341; in [14] it was 0.66; in [15], 0.289; in assay [16] it was 1.75; in assay [17], 0.383; in assay [18], 0.393. Besides, the “glycan array binding signal (z-score)” value in assay [19] is 0.158.
